In publication PMC4336329 (PLoS ONE, 2015):
In all, about 310,000 compounds went through this assay and about 14,000 (4.5%) showed an effect of 50% or more. Effects have a minus sign here. The list shows a part of the results.

Target: human ether-à-go-go-related gene (hERG) potassium channel (human, UniProt Q12809)
Test: primary screen, population patch clamp on CHO cells stably expressing hERG
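Note: peak tail current of the secondary pulse compared with the same well before compound.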

Sequence of human ether-à-go-go-related gene (hERG) potassium channel (Q12809 whole entry, looked up): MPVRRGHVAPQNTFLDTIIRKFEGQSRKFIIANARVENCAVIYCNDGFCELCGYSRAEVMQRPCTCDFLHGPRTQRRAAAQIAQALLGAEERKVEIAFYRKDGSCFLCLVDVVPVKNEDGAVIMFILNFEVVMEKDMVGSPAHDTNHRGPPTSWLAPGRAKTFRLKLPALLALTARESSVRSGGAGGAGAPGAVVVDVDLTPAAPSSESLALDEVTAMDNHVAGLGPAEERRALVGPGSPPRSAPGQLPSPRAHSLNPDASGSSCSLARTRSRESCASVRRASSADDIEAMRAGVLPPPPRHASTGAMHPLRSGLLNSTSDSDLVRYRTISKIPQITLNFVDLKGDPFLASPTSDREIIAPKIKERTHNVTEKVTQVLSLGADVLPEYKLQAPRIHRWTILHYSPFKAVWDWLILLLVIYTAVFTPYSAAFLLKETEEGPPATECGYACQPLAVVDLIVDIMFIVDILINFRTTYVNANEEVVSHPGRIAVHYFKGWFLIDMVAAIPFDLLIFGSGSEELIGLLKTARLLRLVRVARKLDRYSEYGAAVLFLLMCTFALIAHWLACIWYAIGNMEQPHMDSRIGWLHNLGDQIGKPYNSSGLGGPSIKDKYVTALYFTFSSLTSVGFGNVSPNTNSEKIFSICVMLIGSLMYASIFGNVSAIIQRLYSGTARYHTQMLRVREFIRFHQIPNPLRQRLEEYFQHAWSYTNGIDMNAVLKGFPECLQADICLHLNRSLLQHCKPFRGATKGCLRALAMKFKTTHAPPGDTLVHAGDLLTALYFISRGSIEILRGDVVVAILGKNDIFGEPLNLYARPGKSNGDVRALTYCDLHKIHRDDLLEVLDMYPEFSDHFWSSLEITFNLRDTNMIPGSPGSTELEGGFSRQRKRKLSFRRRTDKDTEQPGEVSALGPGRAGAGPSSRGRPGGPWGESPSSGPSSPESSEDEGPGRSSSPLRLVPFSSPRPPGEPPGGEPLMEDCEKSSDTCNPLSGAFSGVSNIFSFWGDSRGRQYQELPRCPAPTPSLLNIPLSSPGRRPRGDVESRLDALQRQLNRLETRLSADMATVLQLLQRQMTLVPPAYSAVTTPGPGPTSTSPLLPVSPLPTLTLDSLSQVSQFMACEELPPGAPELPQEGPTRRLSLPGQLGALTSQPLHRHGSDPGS

| Compound | hERG current change (%, negative = inhibition) at 10uM [%] |
| --- | --- |
| Cc1ccc2c(c1)N1C(=O)c3ccccc3C1C1=C(CC(C)(C)CC1=O)N2 (centres unmarked) | 19.7 |
| O=C(O)[C@@H]1Cc2ccccc2N1 | 8.54 |
| COCCCNC(=O)c1ccc2c(=O)n(CC3CCCO3)c(=S)[nH]c2c1 (centres unmarked) | -8.94 |
| O=C(O)CSCC(=O)N1CCN(Cc2ccc3c(c2)OCO3)CC1 | 15.2 |
| O=C1NC(=S)S/C1=C\c1ccc(SCc2ccccc2)o1 | 12.4 |
| O=C(O)/C=C\C(=O)Nc1ccc(OCc2ccccc2)cc1 | 27.4 |
| CCC(=O)Nc1ccc(C(=O)CSc2nc3ccccc3[nH]2)cc1 | 13.7 |
| CC(=O)c1ccc(NC(=O)N[C@@H](Cc2ccccc2)C(=O)O)cc1 | -11.4 |
| Cc1ccc(/C=N/n2c(C3CCCCC3)n[nH]c2=S)s1 | 15.1 |
| O=C1c2ccccc2C(=O)N1CCn1c(=O)oc2ccccc21 | 9.72 |
| Cc1cc(C)cc(N(C(C)C(=O)N2CCCC2)S(C)(=O)=O)c1 (centres unmarked) | 3.95 |
| CCOC(=O)Cn1c(=O)oc2cc(S(=O)(=O)NCCC(C)C)ccc21 | 8.29 |
| CCOC(=O)Cn1c(=O)n(Cc2ccco2)c(=O)c2ccc(C(=O)NCCc3ccccc3)cc21 | -53.2 |
| O=C(NCC1CCCO1)c1ccc(NS(=O)(=O)c2cccs2)cc1 (centres unmarked) | 18.2 |
| CC(Oc1ccccc1F)c1nnc(SCC(=O)c2c(N)n(C3CC3)c(=O)[nH]c2=O)o1 (centres unmarked) | -4.61 |
| N=c1c(C(=O)NCCc2ccccc2)cc2c(=O)n3ccccc3nc2n1CCCN1CCOCC1 | -76.2 |
| O=C(CCC(=O)c1cccs1)NCc1ccc(Cl)cc1 | -7.97 |
| COC(=O)C1=C(C)NC(=O)NC1c1ccco1 (centres unmarked) | 14.5 |
| COC(=O)C1=C(C)N(C2CCCCC2)C(=O)C1 | 9.82 |

| Compound | hERG current change (%, negative = inhibition) at 10uM [%] |
| --- | --- |
| CCC(=O)Oc1ccc2c(C)cc(=O)oc2c1C(=O)CC | 14 |
| NC(=O)c1cc([N+](=O)[O-])ccc1NCc1cccc2ccccc12 | 10.2 |
| CC(C)=NNc1nc2c(c(=O)n(C)c(=O)n2C)n1C | -1.35 |
| COc1cccc(CNC(=O)CCC2CCCN(C(=O)CCC(F)(F)F)C2)c1 (centres unmarked) | -5.17 |
| Cc1cc(NC(=O)C(C)Oc2ccc(Cl)cc2Cl)n(-c2ccccc2)n1 (centres unmarked) | -3.54 |
| O=C(O)CCN1C(=O)/C(=C\c2ccc(OCc3ccccc3)c(OCc3ccccc3)c2)SC1=S | 18.3 |
| O=C(c1ccco1)c1cn(CC(=O)N2CCCc3ccccc32)c2ccccc12 | -14.6 |
| Cc1nc(SCC(O)CO)c([N+](=O)[O-])[nH]1 (centres unmarked) | 6.84 |
| Cc1cc(NC(=O)c2cccc([N+](=O)[O-])c2)n(-c2ccccc2)n1 | -13.3 |
| Cc1cccc(/C=C2\Sc3ccc(C(=O)N4CCC(C(N)=O)CC4)cc3N(C)C2=O)c1 | -49.3 |
| Cc1ccc(N)c(C)c1 | 8.3 |
| CN1C(=O)C2(C(C#N)=C(N)N(c3cc(Cl)cc(Cl)c3)C3=C2C(=O)CC(C)(C)C3)c2ccccc21 (centres unmarked) | -4.26 |
| O=C(Nc1cc(Cl)ccc1Cl)c1ccco1 | 9.8 |
| CCCC(=O)n1nc(-c2cccnc2)nc1N | -27.1 |
| CCCNc1cc(C)oc(=O)c1C(=O)CCC | -6.08 |
| COc1ccc(OCC(O)CN2C(=O)NC(C)(C)C2=O)cc1 (centres unmarked) | 18.5 |
| O=c1[nH]c(SCc2ccccc2F)nc2ccccc12 | 14.1 |
| O=C1c2ccccc2C(=O)N1Cc1cc(Cl)c(O)c([N+](=O)[O-])c1 | -15.7 |
| COc1cc(OC)c(OC)cc1CN1CCN(S(=O)(=O)c2ccc(F)cc2)CC1.O=C(O)C(=O)O | -7.69 |

| Compound | hERG current change (%, negative = inhibition) at 10uM [%] |
| --- | --- |
| COc1cc(S(=O)(=O)Nc2ccccc2N2CCCCC2)ccc1NC(C)=O | -28.8 |
| O=C(NOCc1ccccc1)c1ccccc1 | 15.9 |
| Cc1cc2cc(CNC(=O)c3ccco3)ccc2n1C | -8.72 |
| CC(=O)Nc1ccc(NC(=O)COc2ccc(Br)cc2C)cc1 | 13 |
| Cc1[nH]c2ccccc2c1C(=O)COC(=O)C1CCC(=O)N1 (centres unmarked) | 6.72 |
| COc1ccc(CN(C)CC(=O)Nc2cc3oc4ccccc4c3cc2OC)c(OC)c1 | -4.91 |
| C[C@@H](C(=O)N[C@@H](Cc1c[nH]c2ccccc12)C(=O)O)n1nnc2ccccc2c1=O | 41.7 |
| N=C(N)c1ccccc1 | -17.9 |
| CCc1nnc(NC(=O)CSc2nnc(COc3ccccc3)n2-c2ccc(C)cc2)s1 | -26.5 |
| C=C(C=O)CC1CC(O)[C@]2(C)OC3CC4OC5C[C@]6(C)O[C@]7(C)CCC8OC9C[C@]%10(C)OC%11C(C)=CC(=O)OC%11CC%10OC9C[C@@H](C)C8OC7CC6O[C@]5(C)CC5OC5C4OC3CC2O1 (some centres unmarked) | -28.1 |
| CNC(=O)CSc1nnc(-c2ccco2)n1-c1ccccc1 | 1.5 |
| CCOC(=O)C(C)Oc1ncnc2cccc(F)c12 (centres unmarked) | 10.5 |
| COC(=O)C1=C(C)N(Cc2ccccc2)C(=NCc2cccc(C(F)(F)F)c2)N[C@H]1c1cccc(F)c1 | 1.99 |
| Br.CC[C@H]1CN2CCC1C[C@H]2[C@H](O)c1ccnc2ccc(OC)cc12.O (some centres unmarked) | -40.7 |
| Cc1ccccc1OC1CCN(C(=O)C2CCC(=O)N(C3CCCC3)C2)CC1 (centres unmarked) | 3.16 |
| CN(C1CCCCC1)S(=O)(=O)Cc1ccccc1 | -6.28 |
| Cc1cc(OCC(=O)Nc2nnc(C3CC3)s2)ccc1[N+](=O)[O-] | 22.2 |
| CCCn1nc2cc(C(=O)N(CC)c3ccc(OC)cc3)ccc2c1OCC | 17.6 |
